According to the supplement of paper PMC4466236:
Over roughly 33,000 sequences, “E-score (dimensionless, -0.5 to 0.5)” has its median near -0.058; the highest 2% begin near 0.35. The list shows a part of the results.

test system: MvaT; test: PBM 8-mer E-score (mean of HK and ME arrays) (E-score (dimensionless, -0.5 to 0.5)); higher = stronger relative binding preference; most listed sequences are background and not binding sites
Summary of the method: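 Full-length P. aeruginosa MvaT carrying an N-terminal glutathione S-transferase tag was tested by protein binding microarray following a previously described protocol. Two universal double-stranded 60-mer arrays, ME and HK, were used, each with a constant 25-mer primer region and a variable 35-mer region covering all 8-mers. The rank-based E-score is the mean of the two arrays, parsed with a custom script. Its range runs from -0.5 to 0.5 for each 8-mer.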

| Sequence | PBM 8-mer E-score |
| --- | --- |
| ATGGATTC | -0.07 |
| ACCCCTGA | -0.27 |
| GCAATGAA | 0.0865 |
| GTGATAGA | -0.0425 |
| AGTTGGCA | -0.0412 |
| ACTTCACT | 0.0283 |
| ATTTAAAG | 0.354 |
| AATAAGGA | 0.19 |
| GCGGAAGC | -0.179 |
| CCGCGATC | -0.215 |
| CTGGGACC | -0.183 |
| GGCTTAGA | -0.0925 |
| AACTCCAG | -0.14 |
| CATTCCAC | -0.0747 |
| CTGCTCAA | -0.117 |
| AACCATAG | 0.0919 |
| ACTGTGAC | 0.0208 |
| GGCAAGCA | -0.272 |
| CGTACGGA | -0.148 |
| ACTATACC | 0.179 |
| CCTAGAGG | -0.191 |
| GTTGACCA | -0.00885 |
| AAGTTACT | 0.339 |
| ATAAGCAG | 0.136 |
| ACCCGGGC | -0.294 |

| Sequence | PBM 8-mer E-score |
| --- | --- |
| GCACGTCC | -0.168 |
| ATCCTCGC | -0.157 |
| CGCGCGCA | 0.0198 |
| CACCCCGA | -0.172 |
| TGTTCTAA | 0.202 |
| AACGGGAC | -0.0138 |
| ATTAACTC | 0.249 |
| GCCGTGAA | -0.104 |
| TGGCGCAA | 0.0575 |
| AGAGCACC | -0.221 |
| AGTCGACG | -0.209 |
| AGGGTAGC | -0.296 |
| GGGTGAAA | 0.0705 |
| AGATTAAG | 0.175 |
| GGTGTCTA | -0.123 |
| GAGCGAAC | -0.195 |
| CGGTATGA | -0.228 |
| GAGCGTCA | -0.289 |
| CATGCGTC | -0.0715 |
| ATATCTCG | 0.229 |
| AGCCGAGC | -0.341 |
| AATGAAAG | 0.238 |
| AAGAGTCA | -0.028 |
| AGCGAGTG | -0.0174 |
| GTGTGCTA | -0.0217 |

| Sequence | PBM 8-mer E-score |
| --- | --- |
| ATAACACC | 0.176 |
| TCAATACA | 0.259 |
| AAGTGTTA | 0.243 |
| TACTACAA | 0.266 |
| AGACAGCA | -0.0818 |
| CATACTCG | 0.00716 |
| ACCGAAAG | -0.133 |
| AATAAACC | 0.289 |
| ATTAACGC | 0.0937 |
| TCGCCAGA | -0.0571 |
| AGCGGACA | -0.107 |
| ACATAAAC | 0.283 |
| TCACCGAA | -0.14 |
| AATTAGCA | 0.192 |
| CTACTCGA | -0.0662 |
| AAAAAAGA | 0.159 |
| ACGTGATA | 0.132 |
| AATCCACG | -0.0564 |
| ATGAAGTC | 0.0081 |
| TAAGCATA | 0.161 |
| CTAGTACC | -0.108 |
| GTAGGATA | 0.0849 |
| ACGAGAAG | -0.0709 |
| CGCCCGAC | -0.326 |
| AATATAAC | 0.42 |

| Sequence | PBM 8-mer E-score |
| --- | --- |
| AAATGGTT | 0.139 |
| CAGTCCAA | -0.129 |
| ACACGAGA | -0.0311 |
| ATGGGCCA | 0.0484 |
| AGACTAGA | 0.16 |
| TGTTGTAA | 0.254 |
| TCACAGGA | -0.0498 |
| CCATCTTC | -0.0489 |
| TACATATA | 0.402 |
| GCGGAACC | -0.335 |
| ACGCTACA | -0.0882 |
| GGTCCGAA | -0.0643 |
| ACACCAAC | -0.0282 |
| CACACCAC | -0.0201 |
| AATCCTTC | -0.0742 |
| TACGTTCA | 0.013 |
| ATGATGCG | -0.0483 |
| CCCGAGTC | -0.173 |
| CCGCGCCG | -0.108 |
| CAACGTGA | -0.113 |
| ATTGATCG | 0.046 |
| ATGGCAGA | -0.0673 |
| GTTTGTTA | 0.25 |
| AAACTGCG | 0.0339 |
| ATGCGCGG | -0.207 |

| Sequence | PBM 8-mer E-score |
| --- | --- |
| CAGGAACA | -0.14 |
| CTAGACAA | 0.0305 |
| CTAGTCGC | -0.235 |
| AGGGGGGC | -0.356 |
| AACTAGCC | 0.0638 |
| GAAGCGGC | -0.223 |
| GACGTGAA | 0.0482 |
| ACAGCAAG | -0.0242 |
| ACGGCCCC | -0.246 |
| AATTTCAG | 0.129 |
| AATAACCG | 0.367 |
| ATAACTTG | 0.38 |
| TCCGTCAA | -0.111 |
| ATTTACAA | 0.3 |
| AGCCAAGG | -0.255 |
| AAAACTTA | 0.386 |
| CCTTGCCC | -0.283 |
| AACCAGCC | 0.0115 |
| AGATTCAC | -0.0072 |
| ATCCAAAC | 0.0402 |
| CGGCGCGC | -0.236 |
| AGTTCCAC | -0.137 |
| CAAAAAAA | 0.0674 |
| CATCAGCG | -0.233 |
| TATATGGA | 0.344 |

| Sequence | PBM 8-mer E-score |
| --- | --- |
| ACGTGTTC | -0.194 |
| TACGCTAA | 0.171 |
| CAATAACG | 0.169 |
| AACCCCTC | -0.241 |
| CCGTAGAC | -0.19 |
| ACCTTCCT | -0.224 |
| CAGTTATA | 0.36 |
| TAGTACCA | -0.031 |
| CGCTCGGA | -0.241 |
| CCAAGTGG | -0.123 |
| GTATTGCA | 0.0858 |
| TATATTCA | 0.373 |
| TCTGTGAA | -0.05 |
| CCCGATAA | 0.0712 |
| TGAGAGAA | -0.118 |
| AGACGGTC | -0.218 |
| CACGTACG | -0.136 |
| CCCTCTAA | -0.178 |
| CAACTCGC | 0.0451 |
| ATAGCGAA | 0.154 |
| GTCACAGA | -0.0922 |
| CTTGTCCA | -0.104 |
| CAACAATC | 0.227 |
| CGTCCGTA | -0.131 |
| ACCTAGAT | 0.065 |

| Sequence | PBM 8-mer E-score |
| --- | --- |
| CTGTTTTA | 0.291 |
| CAACATGC | 0.0285 |
| CGAGTGGA | -0.244 |
| AAAAGGTC | -0.0913 |
| GCACCGGA | -0.249 |
| CCAATACC | 0.154 |
| CTTATTTA | 0.391 |
| TAGGCCGA | -0.0633 |
| AGTTCTTG | 0.0918 |
| CACTGCAC | 0.054 |
| ATGGTAAA | 0.184 |
| CGGAATAA | 0.34 |
| AAGATCGT | 0.0076 |
| CTTTTTAC | 0.187 |
| CTCTTTTA | 0.244 |
| AAAGATCC | 0.0242 |
| AGGTTCCG | -0.212 |
| CAGGGTCG | -0.317 |
| CCCGGATC | -0.232 |
| TGCACAAA | 0.0932 |
| AGCCATAC | -0.0721 |
| AATCCTCG | -0.157 |
